Data from PubChem BioAssay AID1963576 (National Center for Advancing Translational Sciences (NCATS), 2024).
The whole screen tested about 46,000 compounds, of which about 60 (0.1%) were called active. About 3% were inconclusive and are not listed. The call rests on the fitted dose curve; in most records, active means well fitted inhibition curve with a large enough effect; inconclusive means small, poorly fitted or top-dose-only effect; inactive means no such curve, though single readings can be large or run the other way. The list shows a part of the results.

assay: Primary qHTS assay for Inhibitors of ovarian cancer metastasis using an organotypic tumor microenvironment (TME) model.; further: nearly all actives have a fitted effect of over 65% in size;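 on activity change, negative = inhibition: plate controls were DMSO wells for no effect and tomatine positive control wells for full effect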; details: SKOV3ip1-GFP adhesion/invasion on 3D omental model, fluorescence; series mostly up to 45.8 µM; activity change, negative = inhibition: at the top concentration
Procedure, shortened: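 Primary human omental fibroblast/mesothelial 3D culture pre-formed 48 h. SKOV3ip1-GFP cells added with compounds (0.36-46 umol/L), incubated 2 h RT/16 h 37 C, fixed; GFP cells quantified at 488/509 nm.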

outcome, inactive:
COc1ccc(-c2nn(-c3ccccc3)cc2C2NC(=O)NC(C)=C2C(=O)OC(C)C)cc1Cl (centres undefined), CCOC(=O)c1cc(-c2ccc(F)cc2)n(CCC(=O)Nc2nc3ccc(OC)cc3s2)c1C, CCn1nc(C)c2c(-c3ccccc3)cc(=O)n(C(C)C(=O)NCCc3ccc(OC)c(OC)c3)c21 (centres undefined), CCOc1ccc(S(=O)(=O)Nc2cc3c(C(=O)OC)c(COC)oc3c3ccccc23)cc1, Cc1ccc(-n2nc(C)c3c(C)cc(=O)n(CC(=O)NC(C)c4ccccc4)c32)cc1 (centres undefined), Cc1ccc(N=C2NC(=O)CC(C(=O)Nc3cc(C(F)(F)F)ccc3Cl)S2)cc1 (centres undefined), CCC(=O)N1c2ccccc2CC1C(=O)NCc1ccc(N(C)C)cc1 (centres undefined), Cc1ccc(CSCCC(=O)NCc2ccc(F)cc2Cl)cc1, O=C(CCCCn1c(=O)c2ccccc2n(CC(=O)Nc2ccc(F)cc2F)c1=O)NCCc1ccccc1, Cc1ccc(C(=O)NCCc2ccc(S(N)(=O)=O)cc2)cc1-n1cnc2cccnc21, CCOC(=O)c1c(NC(=O)c2cc3nc(-c4ccc(Br)cc4)cc(C(F)(F)F)n3n2)sc(C(C)=O)c1C, Nc1c(C(=O)Nc2ccccc2F)sc2nc3c(cc12)CCCCCC3, Cc1cc(OCC(O)CN2CCN(c3cccc(Cl)c3)CC2)ccc1Cl (centres undefined), COc1ccc(OC)c(CNC(=O)C2CCCCN2S(=O)(=O)c2ccc(F)cc2)c1 (centres undefined), COc1ccc(C)cc1NC(=O)c1cn(C)c(=O)c2cc(OC)c(OC)cc12, CCCc1nn2c(=O)cc(COC(=O)c3ccc(NC(=O)C4CCCCC4)cc3)nc2s1, CC(C)Cc1nn2c(=O)cc(COC(=O)c3ccccc3NC(=O)C3CCCCC3)nc2s1, O=C(Nc1ccc(Br)cc1F)N1CC=C(c2c[nH]c3ccccc23)CC1, CC(=O)c1ccc(NC(=O)c2nc(-c3ccccc3)n(-c3ccccc3)n2)cc1, CCc1ccccc1NC(=O)N1CC(C)Sc2ccccc21 (centres undefined), Cc1cccc(CN2C(=O)c3ccccc3Sc3ccc(C(=O)NCCCN4CCOCC4)cc32)c1

Activity change, negative = inhibition, inactive:
Cc1ccc(Cl)cc1N1CCN(S(=O)(=O)c2cc(Br)cc3c2N(C(=O)C2CC2)CC3)CC1 -5.54%, CC(=O)Nc1ccc(NC(=O)C(Cc2ccccc2)NS(=O)(=O)c2ccc3c(c2)oc(=O)n3C)cc1 (centres undefined) 1.88%, CCOC(=O)CC(NC(=O)CCc1c(C)nc2c(c1C)c(=O)n(C)c(=O)n2C)c1ccc(OCC)c(OC)c1 (centres undefined) -13.3%, CCOc1cc(-c2ccc(OC(=O)c3ccc(OC)cc3)c(OC)c2)cc(=O)c2c(C)oc(C)c12 2.03%, COc1ccc(S(=O)(=O)N(CC(=O)Nc2cc(Cl)ccc2C)Cc2ccccc2)cc1OC 4.27%, Cc1ccc(N(CC(=O)Nc2cc(C)ccc2C)S(=O)(=O)c2c(C)noc2C)cc1 -6.46%, O=S(=O)(c1ccc(Cl)cc1)c1nnn2c1nc(NCc1ccc3c(c1)OCO3)c1sccc12 14.6%, CC(=O)c1ccc(NC(=O)c2ccc(-n3cnnc3)cc2)cc1 0.307%, Cc1ccc(COC(=O)c2[nH]c3c(c2C)C(=O)CC(c2ccc(N(C)C)cc2)C3)cc1 (centres undefined) 2.93%, CCOc1ccccc1NC(=O)C1CCN(S(=O)(=O)c2ccc3c(c2)CCCN3C(C)=O)CC1 -3.57%, COc1cc(Cl)c(NS(=O)(=O)c2cc(-c3cc(C)no3)ccc2OC)c(OC)c1 4.81%, COc1ccc(-n2c(SCC(=O)c3ccccc3)nc3c([nH]c4ccccc43)c2=O)cc1 -8.48%, CCCCN(CC)CCNC(=O)C1CCCN(c2ncnc3onc(C)c23)C1 (centres undefined) 0.974%, CCc1nn(CC(=O)N(C)Cc2ccccc2)c(=O)c2cc3sccc3n12 23.2%, COC(=O)c1sccc1S(=O)(=O)N(CC(=O)Nc1ccccc1F)c1ccccc1 -3.69%, CN(Cc1ccccc1)c1ncnc2c1nnn2C -4.07%, O=S(=O)(NCC(c1ccco1)S(=O)(=O)c1cccs1)c1ccc(Cl)cc1 (centres undefined) -25.7%, O=c1oc2c3c(ccc2c2ccccc12)OCN(Cc1ccccc1Cl)C3 -1.97%, COc1ccc(-c2nnc(SCC(=O)N(C)C3CCCCC3)o2)cc1OC -24.1%, CCOc1ccc(C(=O)c2oc3ccccc3c2NC(=O)c2cc(-c3ccc(Cl)cc3)on2)cc1 -0.75%, COC(=O)c1c(NC(=O)Cc2coc3ccc(C(C)C)cc23)sc2c1CCC2 1.82%, Cc1ccc(NC(=O)Nc2ccccc2OCc2cc(=O)n3ccccc3n2)c(Cl)c1 -3.98%, CCn1cc(C(=O)NCCCOC)c(=O)c2cc(S(=O)(=O)N3CCCC3)ccc21 5.99%, Cc1cccc(C(=O)n2nc(-c3cccnc3)nc2NCc2ccccc2)c1 -3.67%, Cc1ccc(C(=O)COC(=O)c2cccc(NC(=O)c3ccc(Cl)cc3Cl)c2)cc1 -7.02%, CCC(C(=O)NCc1ccc(OC)c(OC)c1)n1nc(C)c2c(C)n(-c3ccc(C)cc3)nc2c1=O (centres undefined) -9.21%, Cc1cc(NC(=O)c2ccc3c(c2)OCCO3)cc(-c2nc3ccccc3o2)c1O -15.1%, Cc1ccc(NS(=O)(=O)c2cc(-c3cnc(C4CC4)o3)ccc2C)cc1Cl -28.6%, COc1ccc(NC(=O)N2CCOc3ccc(Cl)cc32)cc1 48.8%, COc1cc(C(=O)Nc2ccc3c(c2)N(C2CCCC2)C(=O)c2ccccc2S3)cc(OC)c1OC 0.159%, CCOc1ccccc1NC(=O)C1CCCN1S(=O)(=O)c1ccc2c(c1)C(C)(C)C(=O)N2C (centres undefined) -0.236%, CCOc1ccccc1NC(=O)CCNS(=O)(=O)c1cccc2nonc12 -21.1%, CC(C)Oc1ccc(C(=O)NCC(c2ccc(N(C)C)cc2)N2CCCC2)cc1 (centres undefined) -14.1%, Cc1ccc(C)c(NC(=O)Cn2cc(C(=O)c3cccs3)c3ccccc32)c1 1.69%, CCc1ccc(NC(=O)CCNS(=O)(=O)c2ccc3c(c2)oc(=O)n3C)cc1 18.6%, CCOC(=O)c1ccccc1NC(=O)CN1CCCN(Cc2cccc(Cl)c2)S1(=O)=O 6.59%, CCc1ccccc1NC(=O)CN1CCCN(Cc2cc(C)ccc2C)S1(=O)=O 13.4%, CCCCNC(=O)c1cc(-c2ccc(OC)cc2)nc2n[nH]c(-c3cccc([N+](=O)[O-])c3)c12 -3.76%, COc1ccc(Cl)cc1N(C)C(=O)c1cc2c(=O)oc3ccc(C)cc3c2s1 -5.93%, COc1ccc(Cc2nc3c4cnn(-c5ccccc5F)c4ncn3n2)cc1 -5.81%, COc1ccc(C(=O)NNc2ncnc3c2cnn3-c2cccc(Cl)c2)cc1OC -15.9%, COc1ccc(C(C)=O)cc1CSc1nc(NCCc2ccccc2)c2ccccc2n1 -2.17%, CCN(CC)c1ccc(C(=O)NCc2ccc3c(c2)CCN3C(=O)c2ccc(F)cc2)cc1 0.314%, Cc1ccc(CNC(=O)c2ccc3c(c2)nc2n3CCOC2)cc1 12.2%, Cc1ccc(-n2nc(C)c3c(C(=O)NCCc4ccccc4)cc(C)nc32)cc1 4.63%, COc1ccccc1-c1cc(C(=O)Nc2cc(OC)c(OC)c(OC)c2)no1 -25.7%, CCN(CC)CCCNC(=O)c1nn(C)c2c1CSc1ccccc1-2 -9.27%, COc1ccc(Cl)cc1CNCCSc1nnnn1-c1ccccc1 -1.05%, COc1ccc(C2NC(=O)N(C)C3=C2C(=O)N(c2cccc(C(=O)O)c2)C3)cc1 (centres undefined) -5.65%, Cc1cccc(N(CC(=O)NCCSCc2cccc(Cl)c2)S(=O)(=O)c2ccccc2)c1C -3.18%, CCCS(=O)(=O)c1c(S(=O)(=O)CCC)c2cc(CC)ccn2c1C(=O)c1ccc(Cl)cc1 0.728%, Cc1ccc(NC(=O)C2CCN(S(=O)(=O)c3c(C)noc3/C=C/c3cccs3)CC2)cc1F 7.88%, COc1ccc(NC(=O)CCc2nc3c(C)nn(-c4ccc(C)cc4)c3n(C)c2=O)cc1 -1.04%, COc1ccc(-c2ccc(CCC(=O)O)n2-c2ccccc2O)cc1 -9.98%, Cc1cccc(Cn2cc(C(=O)Nc3cc(F)ccc3F)ccc2=O)c1 2.03%, COc1ccc(N2C(=O)Cc3cc(OC)c(OC)cc3C2c2ccc(F)cc2)cc1 (centres undefined) 0.453%, CC(CCc1ccccc1)NC(=O)CSc1n[nH]c(-c2ccc(F)cc2)n1 (centres undefined) -5%, COc1ccc(S(=O)(=O)Nc2cc3c(C(=O)OC(C)C)c(C)oc3c3ccccc23)cc1 3.34%, COc1ccc(CNC(=O)CN2C(=O)CCn3nc(-c4ccccc4)cc32)c(OC)c1 -18.5%, COc1ccc(C(=O)Nc2ccc(S(=O)(=O)N(Cc3ccccc3)c3ccccc3)cc2)cc1 -2.27%, COc1ccc(-c2nn3c(=O)cc(CN4CCN(S(=O)(=O)c5ccc(C)cc5)CC4)nc3s2)cc1 1.91%, Cn1c(Nc2ccc(Cl)cc2)cc(=O)n(C)c1=O 3.66%, CC1=C(C(=O)Nc2ccc(C)cc2C)C(c2ccc(O)cc2)n2nc(SCC(=O)c3ccc(C)cc3)nc2N1 (centres undefined) 4.53%, COc1ccc(-c2nc(Cn3c(SCc4cccc(C(F)(F)F)c4)nc4cccnc43)c(C)o2)cc1OC -3.01%, COc1ccc(C(=O)c2sc3nc(-c4ccc(F)cc4)ccc3c2N)cc1 -1.05%, Cc1oc2ncn(C)c(=O)c2c1C(=O)NCc1ccc(Cl)cc1 1.31%, COc1cccc(NS(=O)(=O)c2ccc3c(c2)N(C)C(=O)CC(=O)N3C)c1 3.53%, Cc1cc(S(=O)(=O)Nc2ccc(C(=O)O)cc2)c(C)c(S(=O)(=O)c2ccc(Cl)cc2)c1 0.504%, Cc1ccc(S(=O)(=O)NCc2nc3cccnc3n2Cc2ccccc2Cl)c(C)c1 -18.8%, CCc1nnc2c(Nc3ccc(N(CC)CC)cc3C)nc3ccccc3n12 -5.45%, CC(=O)c1ccccc1OCC(O)Cn1c(CO)nc2ccccc21 (centres undefined) 71.2%, COc1ccccc1NC(=O)CN1C(=O)c2ccccc2Sc2ccc(C(=O)N3CCCC3)cc21 11.3%, O=C(Nc1nc2ccccc2n1CCOc1ccccc1Cl)c1ccccc1 -8.38%
